# Data: PubChem BioAssay AID504332 (National Center for Advancing Translational Sciences (NCATS), 2011)
# Screen size: about 350,000 compounds; about 31,000 (8.9%) were called active. Inconclusive results, whose numbers are uncertain, are shown with a selection of clear calls. Calls come from the whole dose curve; as a rule, active = well fitted inhibition curve with a large enough effect; inconclusive = small, poorly fitted or top-dose-only effect; inactive = no such curve, though single readings can be large or run the other way. Potencies of inconclusive entries are doubtful fits and often do not repeat. *1 amine or outer side, *2 acyl side, *3 side chain or, on linkers, in order; H or OH if unused. Where a SMILES comes first, the peptide text is derived from it. Bridges are numbered along the chain shown (N, C = ends). [ ]: non-standard residue; d: D form. ξ: configuration not given here. hSer(Ph(2-I,4-NO2,6-CO)) = O=C([C@H](CCOc1c(I)cc([N+](=O)[O-])cc1C(=O)[*:3])N[*:1])[*:2]; ξD = NC(CC(=O)O)C(=O)O
# Target: Histone-lysine N-methyltransferase EHMT2 (Homo sapiens) (UniProt Q96KQ7)
# Test: qHTS Assay for Inhibitors of Histone Lysine Methyltransferase G9a; note: nearly all actives have a fitted effect of over 75% in size
# Details: G9a H3K9 monomethylation, AlphaScreen, 2 h; activity, negative = inhibition: at 59 µM (top of the series) unless noted
# In short: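 Compounds were preincubated with 20 nM G9a for 15 min, after which biotinylated H3K9 peptide (500 nM) and SAM (20 uM) started a 2 h room-temperature reaction. Monomethylated product was quantified by antibody-based AlphaScreen chemiluminescence.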
# % is set by controls: 0 for no effect and ±100 for the full control effect; potency is the fitted concentration of half-maximal effect; tags give direction and shape of the fitted curve.
# Sequence of UniProt Q96KQ7 (Q96KQ7 whole entry, looked up): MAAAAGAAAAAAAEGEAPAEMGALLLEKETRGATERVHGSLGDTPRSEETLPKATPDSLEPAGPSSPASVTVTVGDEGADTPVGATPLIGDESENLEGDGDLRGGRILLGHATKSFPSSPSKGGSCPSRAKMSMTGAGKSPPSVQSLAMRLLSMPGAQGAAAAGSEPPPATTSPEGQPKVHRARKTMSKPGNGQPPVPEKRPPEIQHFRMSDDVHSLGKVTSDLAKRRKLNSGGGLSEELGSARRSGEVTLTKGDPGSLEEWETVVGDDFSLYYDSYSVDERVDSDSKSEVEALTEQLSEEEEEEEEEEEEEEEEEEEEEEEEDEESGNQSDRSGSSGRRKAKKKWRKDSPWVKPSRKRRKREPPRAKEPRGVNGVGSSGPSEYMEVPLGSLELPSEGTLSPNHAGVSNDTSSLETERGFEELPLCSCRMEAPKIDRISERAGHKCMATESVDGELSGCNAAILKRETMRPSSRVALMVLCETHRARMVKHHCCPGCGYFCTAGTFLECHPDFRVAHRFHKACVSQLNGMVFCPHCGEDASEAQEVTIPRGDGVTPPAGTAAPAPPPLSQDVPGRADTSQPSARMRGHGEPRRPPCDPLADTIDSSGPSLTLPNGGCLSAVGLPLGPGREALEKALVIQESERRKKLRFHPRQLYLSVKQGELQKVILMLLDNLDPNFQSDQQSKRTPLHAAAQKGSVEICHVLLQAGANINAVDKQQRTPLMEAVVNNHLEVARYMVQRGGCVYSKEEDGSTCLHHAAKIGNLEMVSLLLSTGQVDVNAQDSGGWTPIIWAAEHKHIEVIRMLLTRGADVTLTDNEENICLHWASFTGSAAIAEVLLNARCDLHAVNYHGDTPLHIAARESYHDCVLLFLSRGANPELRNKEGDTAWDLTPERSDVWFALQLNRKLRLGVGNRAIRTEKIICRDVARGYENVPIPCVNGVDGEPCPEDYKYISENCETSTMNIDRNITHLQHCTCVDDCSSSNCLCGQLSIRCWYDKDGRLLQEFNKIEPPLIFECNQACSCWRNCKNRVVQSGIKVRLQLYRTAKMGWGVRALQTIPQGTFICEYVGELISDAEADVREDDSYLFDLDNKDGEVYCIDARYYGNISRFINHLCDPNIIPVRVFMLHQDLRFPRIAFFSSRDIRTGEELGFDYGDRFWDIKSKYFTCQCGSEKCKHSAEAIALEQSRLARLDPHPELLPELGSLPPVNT
SMILES,Potency,"activity, negative = inhibition"
CC(C)Cc1ccc([C@@H](C)C(=O)NS(C)(=O)=O)cc1,"inconclusive: 0.891 µM [inhibitor, full curve, poor fit]",–
O=C(COc1cc(F)ccc1[N+](=O)[O-])Nc1ccc(N2CCCCC2)cc1,"inconclusive: 20 µM [inhibitor, partial curve, poor fit]",–
CCc1ccccc1NC1Nc2cc(C)nn2S1 (configuration not stated),active: 1.58 µM,–
COCCCn1c(=S)[nH]c2ccc(N3CCOCC3)cc2c1=O,–,inconclusive: -109% [inhibitor]
Cc1csc(NC(=S)NC(=O)c2ccccc2)n1,"inconclusive: 79.4 µM [inhibitor, single point]",–
COc1ccc(N2CCN(Cc3nnc(-c4ccc5c(c4)OCO5)o3)CC2)cc1,"inconclusive: 3.16 µM [inhibitor, partial curve, poor fit]",–
Cc1ccc2c(c1)c1c3n2CCN(C(=O)c2cccc(C(F)(F)F)c2)C3CCC1 (configuration not stated),active: 7.94 µM,–
CC(C)OC(=O)CC1C(=O)NCCN1C(=S)NC(=O)c1ccccc1Cl (configuration not stated),"inconclusive: 44.7 µM [inhibitor, single point]",–
Cc1cccc(Cc2cnc(NC(=O)CN3C(=O)/C(=C/c4ccccc4)SC3=S)s2)c1,active: 39.8 µM,–
CC(C)Cc1ccc(C(C)C(=O)Nc2ccc(O)cc2)cc1 (configuration not stated),"inconclusive: 22.4 µM [inhibitor, single point]",–
O=S(=O)(c1ccc(Cl)cc1Cl)n1ccnc1,"inconclusive: 0.631 µM [inhibitor, partial curve, poor fit]",–
"NC(=O)C(CC(=O)O)NC(=O)[C@@H]1CCOc2c(I)cc([N+](=O)[O-])cc2C(=O)N[C@@H](CCC(=O)O)C(=O)N[C@@H](CO)C(=O)N1 (some centres not stated) (ES[hSer(Ph(2-I,4-NO2,6-CO))][ξD]-NH2; lactam N-3)",active: 7.94 µM,–
Cn1cccc1C(=S)N=P(C1CCCCC1)(N1CCOCC1)N1CCOCC1,active: 8.91 µM,–
O=C(NCc1ccccn1)C(=O)Nc1nc(C23CC4CC(CC(C4)C2)C3)cs1,inactive,–
CCC(Sc1nc2ncccc2o1)C(=O)Nc1ccc(OC)c(OC)c1 (configuration not stated),inactive,–
CCC1CN(C(=O)N2CCC(C(=O)N3CCN(c4ccccc4F)CC3)CC2)c2ccccc2O1 (configuration not stated),inactive,–
COc1ccc(Cl)cc1NS(=O)(=O)c1cccc(C(=O)NC2CCC(O)CC2)c1 (configuration not stated),"inconclusive: 79.4 µM [inhibitor, partial curve, poor fit]",–
O=C(N/N=C/c1c(Nc2cccc(C(F)(F)F)c2)nc2ccccn2c1=O)c1ccccc1[N+](=O)[O-],"inconclusive: 89.1 µM [inhibitor, partial curve, poor fit]",–
CCS(=O)(=O)N1CCN(S(=O)(=O)c2ccc(Cl)s2)CC1,active: 15.8 µM,–
Cc1nn(Cc2ccc(F)cc2)c(C)c1NC(=O)c1cnn2c1NC(c1ccccc1)CC2C(F)(F)F (configuration not stated),"inconclusive: 89.1 µM [inhibitor, single point]",–
Cc1ccc(S(=O)(=O)N2CCN(C(=O)c3ccc(N4CCCC4)c([N+](=O)[O-])c3)CC2)cc1,–,inactive: -4.02% [at 12.7 µM]
COc1ccccc1NC(=O)Cn1nc(-c2ccc(Cl)cc2)c2ccccc2c1=O,active: 10 µM,–
CCc1cccc(Nc2cnn(C34C[C@@H]5C[C@@H](CC(CC(=O)O)(C5)C3)C4)c(=O)c2Cl)c1,"inconclusive: 44.7 µM [inhibitor, partial curve, poor fit]",–

SMILES,Potency,"activity, negative = inhibition"
Cc1ccc(CCNC(=O)C23C[C@H]4C[C@@H](C2)CC(n2nnc(C)n2)(C4)C3)cc1,inactive,–
Cc1noc(C(=O)NCC2CCCO2)c1Cl (configuration not stated),inactive,–
Cc1ccc(C)c(N2CCN(S(=O)(=O)c3c(C)noc3/C=C/N(C)C)CC2)c1,"inconclusive: 56.2 µM [inhibitor, partial curve]",–
CC(C)(C)N1C(=O)c2ccc(C(=O)Nc3ccc(O)cc3)cc2C1=O,"inconclusive: 89.1 µM [inhibitor, single point]",–
O=C(Cn1ncc2c3ccccc3n(Cc3ccc(F)cc3)c2c1=O)NCc1ccccn1,inactive,–
OCCN1CCN(C2Cc3cc(Cl)ccc3Sc3ccc(Cl)cc32)CC1 (configuration not stated) (tested in a mixture with another compound),"inconclusive: 31.6 µM [inhibitor, single point]",–
CCOc1ccccc1CN1CCNC(=O)C1CC(=O)NCCC1=CCCCC1 (configuration not stated),"inconclusive: 79.4 µM [inhibitor, single point]",–
CCCC1CC(CSC(=N)N)OC1=O (configuration not stated),inactive,–
O=C(CCc1nnc2ccc(N3CCCC3)nn12)Nc1ccc(F)cc1F,inactive,–
Cc1ccc(C(c2c(O)cc(C)n(Cc3ccco3)c2=O)N2CCC(C)CC2)cc1 (configuration not stated),"inconclusive: 39.8 µM [inhibitor, partial curve, poor fit]",–
O=S(=O)(c1ccc(S(=O)(=O)N(Cc2ccco2)Cc2ccccc2Cl)cc1)N1CCCC1,"inconclusive: 8.91 µM [inhibitor, partial curve]",–
Cc1ccc(NC(=O)CSc2nc3ccccc3c(=O)n2CCCN2CCCCC2)cc1Cl,"inconclusive: 39.8 µM [inhibitor, single point]",–
CCC1CCCCN1Cc1ccc(N)cc1 (configuration not stated),–,inactive: -11.1% [at 0.501 µM]
Cc1cc(C)n2cc(CSc3ncccc3C(=O)O)nc2n1,"inconclusive: 70.8 µM [inhibitor, partial curve, poor fit]",–
Cc1cccc(-c2nc(CN3CCCC(C(=O)NCCc4ccc(Cl)cc4)C3)c(C)o2)c1 (configuration not stated),"inconclusive: 17.8 µM [inhibitor, partial curve, poor fit]",–
S=c1[nH]nc(-c2ccncc2)n1/N=C/c1cccc(Cl)c1,active: 1 µM,–
CC(=O)Nc1cc2nn(-c3ccccc3)nc2cc1C,"inconclusive: 89.1 µM [inhibitor, single point]",–
COc1ccc(OCCNc2cc(N3CCOCC3)ccc2[N+](=O)[O-])cc1,"inconclusive: 10 µM [inhibitor, partial curve]",–
CCOC(=O)c1c(NC(C)=O)sc2c(OC)c(Br)ccc12,"inconclusive: 2.24 µM [inhibitor, full curve, poor fit]",–
O=C(CCn1c(=O)c2sccc2n(Cc2ccc(F)cc2Cl)c1=O)NCc1ccc2c(c1)OCO2,inactive,–
Cc1ccccc1CCNC(=O)c1ccc2c(c1)nc1n2CCCCC1,inactive,–
CC(C)Oc1ccc(C(=O)Nc2ccc(N3CCCC3)cc2)cc1,–,inconclusive: -115% [inhibitor] [at 12.7 µM]
CC(C)c1nnc(SCC(=O)N2CCc3ccccc32)n1N,"inconclusive: 70.8 µM [inhibitor, single point]",–

SMILES,Potency,"activity, negative = inhibition"
CC(=O)c1ccc(NC(=S)Nc2cccc(S(=O)(=O)Nc3c(C)n(C)n(-c4ccccc4)c3=O)c2)cc1,"inconclusive: 31.6 µM [inhibitor, partial curve, poor fit]",–
Cc1ccc2c(c1)c1c(c(=O)n(Cc3ccccc3)c(=O)n1CC(=O)Nc1ccccc1F)n2C,inactive,–
O=C1NC(=O)C2(CCCc3ccccc32)N1 (configuration not stated),inactive,–
COc1ccccc1NS(=O)(=O)c1cccc(-n2c(O)c(C=Nc3ccccc3C(=O)O)c3ccccc3c2=O)c1,active: 44.7 µM,–
N#CC(c1ccccc1)c1ccc2c(C(F)(F)F)cc(C(F)(F)F)nc2n1 (configuration not stated),active: 10 µM,–
COC(=O)[C@@]1(Cc2ccc(OC)cc2)[C@H]2c3cc(C(=O)N4CCCC4)n(CCn4cc([N+](=O)[O-])nc4C)c3C[C@H]2CN1C(=O)c1ccccc1,"inconclusive: 79.4 µM [inhibitor, single point]",–
CC(NC(=O)c1cccs1)c1n[nH]c(=S)n1C (configuration not stated),"inconclusive: 39.8 µM [inhibitor, single point]",–
CC(=O)N1CCN(S(=O)(=O)c2cccc(C(=O)Nc3ccc4c(c3)OCO4)c2)CC1,"inconclusive: 50.1 µM [inhibitor, partial curve]",–
CCOC(=O)c1cccc(NC(=O)c2cnc3sc(N4CCOCC4)nn3c2=O)c1,inactive,–
O=C(CN1CCCN(S(=O)(=O)c2ccc(F)cc2)CC1)Nc1cccc(F)c1,active: 31.6 µM,–
Cc1csc2nc(CNS(=O)(=O)c3ccc4c(c3)CCCC4)cn12,"inconclusive: 50.1 µM [inhibitor, partial curve]",–
COC(=O)C(=Cc1ccccc1[N+](=O)[O-])C(=O)OC,"inconclusive: 79.4 µM [inhibitor, single point]",–
C=CCn1c(SCC(=O)c2cccs2)nnc1-c1cccc(OC)c1,–,inconclusive: -57.4% [inhibitor]
NS(=O)(=O)c1ccc(CCNC(=O)CNCCc2ccccc2)cc1,active: 50.1 µM,–
S=C(N/N=C/c1ccc2ncccc2c1)Nc1cccnc1,"inconclusive: 79.4 µM [inhibitor, single point]",–
COc1ccc(CCNC(=S)N2CCN(S(=O)(=O)c3ccc(F)cc3)CC2)cc1,–,inactive: -16.1% [at 0.501 µM]
CCc1ccc(-n2c(SCC(=O)N3CCC(C(=O)O)CC3)nnc2-c2ccncc2)cc1,"inconclusive: 89.1 µM [inhibitor, single point]",–
Cc1ccc(-c2cc(C(=O)O)c3ccccc3n2)c(C)c1,"inconclusive: 89.1 µM [inhibitor, partial curve, poor fit]",–
c1ccc(-c2nn3c(Cn4nnc5ccccc54)nnc3s2)cc1,active: 3.16 µM,–
Cc1cc(-c2nnc3n2N=C(c2ccccc2)CS3)n[nH]1,active: 44.7 µM,–
COc1ccc(C(C)(C)C)cc1NC(=O)CNc1cccc2ccccc12,"inconclusive: 25.1 µM [inhibitor, single point]",–
